Results reported in the supplement of paper PMC3334620.
The full ranking holds about 33,000 sequences; the median of “E-score (-0.5 to 0.5)” is about -0.054, and the highest 2% start at about 0.35. The list shows a part of the results.

Target: T1, Stb5 (UniProt P38699)
T1 sequence: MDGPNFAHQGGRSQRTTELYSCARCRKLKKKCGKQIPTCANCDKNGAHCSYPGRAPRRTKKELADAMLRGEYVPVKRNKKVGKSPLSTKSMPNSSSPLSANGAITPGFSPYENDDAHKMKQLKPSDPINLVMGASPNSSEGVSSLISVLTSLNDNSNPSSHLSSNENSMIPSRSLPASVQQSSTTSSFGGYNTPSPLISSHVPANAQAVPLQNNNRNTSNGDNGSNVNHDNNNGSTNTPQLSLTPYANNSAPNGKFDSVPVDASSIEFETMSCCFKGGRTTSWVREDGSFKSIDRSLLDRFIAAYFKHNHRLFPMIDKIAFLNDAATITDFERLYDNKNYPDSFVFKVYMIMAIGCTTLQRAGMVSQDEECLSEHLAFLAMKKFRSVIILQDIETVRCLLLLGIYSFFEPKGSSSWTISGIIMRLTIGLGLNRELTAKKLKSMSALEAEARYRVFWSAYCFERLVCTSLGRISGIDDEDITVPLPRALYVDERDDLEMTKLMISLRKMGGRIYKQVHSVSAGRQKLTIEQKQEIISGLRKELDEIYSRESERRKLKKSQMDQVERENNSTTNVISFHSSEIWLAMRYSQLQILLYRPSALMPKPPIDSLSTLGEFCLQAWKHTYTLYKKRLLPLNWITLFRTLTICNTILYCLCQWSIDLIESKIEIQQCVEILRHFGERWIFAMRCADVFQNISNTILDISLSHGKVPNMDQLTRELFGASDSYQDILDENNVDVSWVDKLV
Experiment: PBM E-score (8-mer binding enrichment) (E-score (-0.5 to 0.5)); higher = stronger / more preferred TF binding; most listed sequences are background and not binding sites
Conditions: protein concentration: 200 nM; construct: GST-full length
Description: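 Universal 'all 10-mer' protein binding microarrays (Agilent AMADID 015681) probed with GST-tagged S. cerevisiae TFs (full-length or DBD) made by in vitro transcription/translation (PURExpress), about 100-200 nM. Bound TF was detected with fluorescent anti-GST. Each ungapped 8-mer (which stands for itself and its reverse complement) is scored by the PBM enrichment score (E-score), a modified Wilcoxon-Mann-Whitney statistic from -0.5 to +0.5, computed with the Universal PBM Analysis Suite. Scale: above 0.35 generally sequence-specific binding.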

Row | Sequence | PBM E-score
1 | AACACGTG | -0.162
2 | CTTTGTAC | -0.162
3 | ATACCCAT | -0.148
4 | TCTTGAAA | 0.0338
5 | CTAGGCCA | -0.0954
6 | ACACAAGC | -0.169
7 | TGACTTAA | -0.0219
8 | AAATTCAA | 0.009
9 | CGAATCCC | 0.136
10 | ACACTACT | -0.0592
11 | CATCCTAA | 0.0742
12 | AGGGTTAA | -0.179
13 | CTGAGGAA | -0.157
14 | GGTCTTGA | 0.0653
15 | CTGCTATC | -0.114
16 | AATTCGGG | 0.148
17 | AAAGCCAG | -0.117
18 | AAAACGCA | 0.0671
19 | ACAGAATG | -0.304
20 | ACATTTGC | 0.0209
21 | GGCCGCTA | 0.299
22 | ACAACCCG | 0.075
23 | AATGGACC | 0.164
24 | ATAGTATC | 0.139
25 | AGCAAGTA | -0.25

Row | Sequence | PBM E-score
26 | ACCTGATG | -0.215
27 | CGTTGGAC | -0.0247
28 | ACGGTGGC | 0.123
29 | AAAGAAGA | -0.116
30 | AACGCAGG | -0.0218
31 | CCGGTATC | 0.305
32 | ACCCGGTG | 0.276
33 | ACGATGAA | 0.0901
34 | CAAATGGC | 0.134
35 | CGGTCTGC | 0.145
36 | AATTCCAT | -0.233
37 | CGACGAAA | -0.08
38 | GATAACCC | -0.0132
39 | ATTGTCCC | 0.0499
40 | GACTTGGA | 0.036
41 | GGCCAAAA | -0.0706
42 | AGATGCGG | 0.117
43 | CCAACCTA | -0.0471
44 | CACCATAG | -0.221
45 | CATAACAC | 0.0801
46 | CATCTCAG | -0.25
47 | CATGCAAA | -0.0617
48 | ACGACACC | 0.148
49 | CAGCTGCG | 0.0512
50 | CTATCGAA | -0.0224

Row | Sequence | PBM E-score
51 | ACGCGGAA | 0.0896
52 | AACCACCG | 0.406
53 | GTACTTCA | 0.00797
54 | ACCGTAGA | 0.1
55 | AAGGGCGG | 0.338
56 | CGTACACG | -0.0438
57 | AGCACTCA | -0.186
58 | CATCATCA | -0.0917
59 | GACATTTA | 0.242
60 | CTACATTC | -0.109
61 | GGAAAACC | -0.171
62 | GCCCGTCA | 0.244
63 | ATTGGGAA | -0.0923
64 | CTATTCCC | 0.136
65 | GACGTTCA | -0.138
66 | GCGGCCCA | 0.215
67 | TGCTTTAA | 0.0424
68 | AATCCTGA | -0.254
69 | CATGTTCA | -0.334
70 | CCCTTACA | -0.0595
71 | CCGAGTGC | 0.133
72 | CACGAATC | -0.0265
73 | CGTATACA | -0.136
74 | GAGCCCTA | -0.0868
75 | ATCGTTCG | -0.0639

Row | Sequence | PBM E-score
76 | ATTAGTAA | 0.174
77 | GTTCTTGA | -0.228
78 | GCGTCGAC | -0.12
79 | CATCCATC | -0.172
80 | CATGAGTC | -0.238
81 | TAGAGCCA | -0.301
82 | AATGAATC | -0.154
83 | CACTTCTG | -0.0975
84 | GCTACGAC | 0.132
85 | CACTAATC | 0.129
86 | AGCTGCTA | -0.207
87 | CATTTTTA | 0.183
88 | CAGCGCGC | 0.14
89 | AACGACTC | -0.333
90 | ACCGGCAG | 0.277
91 | CTGGAAAC | -0.182
92 | GCTACACA | -0.166
93 | AACCTAAA | 0.0271
94 | AGATGATA | -0.0731
95 | CACACTTC | -0.124
96 | CCCGTCAA | 0.175
97 | AGTAGACA | -0.0717
98 | CATTGCCG | 0.149
99 | GAAGCAGA | -0.278
100 | AAACAGCT | -0.127

Row | Sequence | PBM E-score
101 | GAAGCCAC | 0.0166
102 | GATGAATA | 0.035
103 | AGGTACGA | -0.0786
104 | AGTGGGTG | -0.135
105 | AACCCTGG | -0.284
106 | CTTTTTGA | -0.162
107 | CCTTGACA | -0.071
108 | ACTTAGCC | 0.00833
109 | AATGTGTG | -0.103
110 | CGCTGTTA | 0.445
111 | ACATATCT | 0.0384
112 | GTGTCGAA | -0.0704
113 | CCACCACA | -0.0405
114 | AACAAAGG | -0.0741
115 | CCGACTTA | 0.324
116 | AGCAGGAG | -0.0573
117 | ATTGTGTA | -0.0965
118 | AGAGTCAG | -0.1
119 | AGCGCCCC | -0.0902
120 | CACGCTCG | -0.169
121 | CTTTGTTA | 0.0345
122 | AGTGCAAA | -0.106
123 | ACCCGTCA | 0.226
124 | ATTATGAC | 0.103
125 | CGGGACCC | 0.111

Row | Sequence | PBM E-score
126 | CTTGAGGA | -0.186
127 | CACGATCG | 0.0415
128 | AATGGGAC | -0.0748
129 | GTGAGCAC | -0.0695
130 | CAGGTGCA | -0.191
131 | CAAATCGG | 0.303
132 | CAACATAA | -0.00782
133 | ACCCTTAC | -0.0493
134 | CGATAAAA | 0.254
135 | CCTCAGGC | -0.018
136 | CTTTCAAC | -0.123
137 | AACCTTGC | -0.0575
138 | AGGGTTAG | -0.234
139 | CGGACTCC | 0.231
140 | GTCGTCCA | -0.072
141 | ACATATGA | -0.1
142 | AAGACCGG | 0.418
143 | CGGTGAAC | 0.177
144 | ACGTCACA | -0.197
145 | CAGCTAGG | -0.139
146 | CACGTCTG | -0.156
147 | CGATATAG | 0.0794
148 | GCGGAACA | 0.238
149 | GGGCGACC | -0.202
150 | AAATACAC | -0.107

Row | Sequence | PBM E-score
151 | CAACTGCA | -0.355
152 | CTCTTCAG | -0.0718
153 | GAAGTGGC | -0.159
154 | CCTACGGA | 0.214
155 | GCCGTTTA | 0.212
156 | CGTTTGTA | 0.0345
157 | ATGTTCAC | -0.207
158 | AGGCGCTG | 0.0509
159 | CCGACATC | 0.252
160 | GAGAATCA | -0.104
161 | TATCCGCA | 0.174
162 | GATGTCAA | 0.017
163 | ATTCCAGA | 0.0258
164 | CATGGGGA | -0.091
165 | CATGCTCC | -0.216
166 | AGTGCGGG | 0.151
167 | AGTACTAG | -0.307
168 | TGGAAAAA | -0.00409
169 | CGACCAAG | -0.148
170 | CTTTTGAC | -0.0853
171 | AGAACAGA | -0.0903
172 | AGGGAATA | 0.0674
